Among all 310,000 compounds or so, about 14,000 (4.5%) showed an effect of 50% or more. The effect is printed as a negative number. The list shows a part of the results.
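Note: peak tail current of the secondary pulse compared with the same well before compound.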

In the assay the target is human ether-à-go-go-related gene (hERG) potassium channel (human, UniProt Q12809). The assay is described as follows: primary screen, population patch clamp on CHO cells stably expressing hERG.
Chain of human ether-à-go-go-related gene (hERG) potassium channel (Q12809 whole entry, looked up): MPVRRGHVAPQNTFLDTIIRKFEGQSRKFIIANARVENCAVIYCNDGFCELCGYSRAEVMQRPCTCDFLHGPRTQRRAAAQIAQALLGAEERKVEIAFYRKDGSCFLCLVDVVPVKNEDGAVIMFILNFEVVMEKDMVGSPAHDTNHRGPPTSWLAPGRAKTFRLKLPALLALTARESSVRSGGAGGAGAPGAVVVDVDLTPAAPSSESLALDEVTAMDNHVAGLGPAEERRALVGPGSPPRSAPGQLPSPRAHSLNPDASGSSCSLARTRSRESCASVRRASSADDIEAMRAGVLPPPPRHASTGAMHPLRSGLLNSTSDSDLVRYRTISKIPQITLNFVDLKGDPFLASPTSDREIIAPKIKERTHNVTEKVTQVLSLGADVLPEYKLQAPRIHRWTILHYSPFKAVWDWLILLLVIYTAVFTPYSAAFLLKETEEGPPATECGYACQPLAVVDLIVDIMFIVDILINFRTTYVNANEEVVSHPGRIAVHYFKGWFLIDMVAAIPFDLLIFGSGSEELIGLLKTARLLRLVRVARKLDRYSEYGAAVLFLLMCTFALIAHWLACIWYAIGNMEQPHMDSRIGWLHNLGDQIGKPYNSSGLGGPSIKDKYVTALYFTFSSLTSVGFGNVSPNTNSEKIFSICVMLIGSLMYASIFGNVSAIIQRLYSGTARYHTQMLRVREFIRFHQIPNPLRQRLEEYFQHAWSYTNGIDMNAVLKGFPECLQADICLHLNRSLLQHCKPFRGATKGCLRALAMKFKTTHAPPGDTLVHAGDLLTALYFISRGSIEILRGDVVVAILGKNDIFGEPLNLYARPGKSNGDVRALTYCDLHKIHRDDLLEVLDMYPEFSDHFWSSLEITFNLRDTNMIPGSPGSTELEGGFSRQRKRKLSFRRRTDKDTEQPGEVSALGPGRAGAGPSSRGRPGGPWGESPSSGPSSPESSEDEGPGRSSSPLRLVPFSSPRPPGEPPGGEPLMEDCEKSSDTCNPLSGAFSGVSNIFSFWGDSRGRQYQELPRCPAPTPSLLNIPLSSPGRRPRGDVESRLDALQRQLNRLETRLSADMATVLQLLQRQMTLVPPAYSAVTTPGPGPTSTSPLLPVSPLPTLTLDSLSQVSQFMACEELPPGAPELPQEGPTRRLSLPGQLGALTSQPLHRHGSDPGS
`Cc1cc(-c2ccccc2)nc2cc(C(=O)N(Cc3ccccc3)Cc3ccccc3)nn12`: the “hERG current change (%, negative = inhibition) at 10uM” value is given as -5.55%.
With `Cc1ccc(C)c(S(=O)(=O)NC(C)C(=O)NCc2ccccn2)c1` (stereo not shown) the figure was 14.6%; with `COC(=O)[C@@]1(Cc2ccc(OC)cc2)[C@H]2c3cc(C(=O)N(C)C)n(Cc4c(CO)[nH]cc(C)c4=O)c3C[C@H]2CN1C(=O)c1ccccc1`, 4.95%.
The figure for `CCC(=O)OCC(=O)Nc1cc(S(=O)(=O)N(C)C)ccc1Cl` is 17.1%; for `Cc1cc(C(F)(F)F)n(-c2nc(C(=O)O)cs2)n1` it is 37%.
As for `CC(C)n1c(O)c(N=Nc2ccc(Cl)c(C(=O)O)c2)c2ccccc21`, the “hERG current change (%, negative = inhibition) at 10uM” value was -5.41%.
Turning to `CCc1noc(C)c1C(=O)NCCc1ccc(F)cc1`, the “hERG current change (%, negative = inhibition) at 10uM” value is given as 5.94%.
Consider `Cc1nc(NCCCN2CCOCC2)c2oc3ccccc3c2n1.Cl`, for which the “hERG current change (%, negative = inhibition) at 10uM” value was -15.5%.
The figure for `O=C(CCCOc1ccccc1)Nc1ccc(S(=O)(=O)Nc2ccccn2)cc1` is 20.6%; for `C=CCNC(=S)Nc1ccc(N2CCOCC2)c(S(=O)(=O)Nc2ccccc2Cl)c1` it is -12.5%.
For `Cc1[nH]c2ccccc2c1C(O)CN1CCC2(CC1)OCCO2` (stereo not shown), the “hERG current change (%, negative = inhibition) at 10uM” value is -44.1%.
With `CCNC(=O)C1CC(=O)OC12CCCCC2` (stereo not shown) the figure was -0.628%; with `CCOC(=O)C1=C(c2ccccc2)NC(=S)NC1c1cc([N+](=O)[O-])ccc1OC` (stereo not shown), 2.63%; with `Cc1ccc(C(=O)Nc2scc(-c3ccccc3)c2C(=O)O)o1`, 15.1%.
Turning to `COc1ccc(O)c(C(=O)c2cnn(S(=O)(=O)c3ccc(C)cc3)c2)c1`, the “hERG current change (%, negative = inhibition) at 10uM” value is recorded as 4.18%.
With `COc1ccc(CNC(=O)C2CCC(CNS(=O)(=O)c3ccc(C)cc3)CC2)cc1` (stereo not shown) the figure was 16.4%; with `CCC(C)c1ccccc1O` (stereo not shown), 13.2%.
On to `COc1ccc(Br)cc1CN(C)C(C)C(=O)Nc1cccc(C(C)=O)c1` (stereo not shown), for which the “hERG current change (%, negative = inhibition) at 10uM” value is -13.3%.
For `CNC(=S)N1CCn2cccc2C1c1ccc(F)cc1` (stereo not shown), the “hERG current change (%, negative = inhibition) at 10uM” value was -10.1%.
As to `COc1ccc(CC2(CO)CCN(Cc3ccc4nsnc4c3)CC2)cc1`, the “hERG current change (%, negative = inhibition) at 10uM” value is given as -58.9%.
With `O=C(N/N=C/c1cccc2ccccc12)c1ccccc1Cl`, the “hERG current change (%, negative = inhibition) at 10uM” value was found to be 8.63%.
The figure for `COC(=O)c1[nH]cnc1C(=O)c1ccccc1` is 9.97%; for `CCNc1cccc2c1C(=O)N(C)C2=O` it is 48.1%; for `NC(=O)N/N=C1\CCS(=O)(=O)c2ccc(F)cc21` it is 25.6%.
With `COC(=O)c1ccc(OCC(O)CN2CCN(C(=O)c3ccco3)CC2)c(OC)c1` (stereo not shown) the figure was -15.5%.

Values taken from article PMC4336329 (PLoS ONE, 2015).
